Assay results: publication PMC6212790
The other results are listed elsewhere or left out. At the low end of the ranking, values are background and their order means little.

Each sequence was assayed against T1, GST-Rok-C97-191 (UniProt O34857) (assay: protein binding microarray). Details: Rok is a gene silencer of Bacillus subtilis; high values mean tight binding; most listed sequences are background and not binding sites; double strand, one strand shown.
T1 sequence: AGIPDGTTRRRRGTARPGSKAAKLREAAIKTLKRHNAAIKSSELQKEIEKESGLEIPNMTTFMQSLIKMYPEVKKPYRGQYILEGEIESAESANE
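Note: rank score from −0.5 (least bound) to 0.5 (best bound).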

Sequence | binding signal
ATTCAGTA | 0.13 E-score
CGAGATTC | 0.103 E-score
ACTATGAA | 0.174 E-score
ATACGGAT | 0.287 E-score
CGAACTGC | -0.119 E-score
AATGGCTA | -0.031 E-score
GACGAAAC | 0.0146 E-score
CGAACCTA | 0.0128 E-score
AAACTTCC | -0.0662 E-score
CCGGCGAA | -0.131 E-score
AATAAGGT | 0.106 E-score
ACCCCGTC | -0.244 E-score
CCCCTAAA | -0.0753 E-score
GGTGACGA | -0.132 E-score
GCAACATA | 0.217 E-score
ACCGGGTC | -0.145 E-score
ACAGTGAT | -0.0197 E-score
AATGATGC | 0.103 E-score
AAGGACGA | -0.197 E-score
GGCAGCGA | -0.113 E-score
AGCACCCC | -0.142 E-score
GACACCTA | -0.0195 E-score
AGACTACC | 0.268 E-score
AATAGGAC | 0.0906 E-score
CAGCACTC | -0.0949 E-score

Sequence | binding signal
ACTGACCT | 0.149 E-score
CTAGCTAG | 0.294 E-score
ACTTGATG | -0.0365 E-score
AGCGGGGG | -0.349 E-score
TGGAACCA | -0.321 E-score
ACAAGAAA | -0.0035 E-score
AGAAGATG | 0.105 E-score
GGTCTGAC | -0.279 E-score
AGGTCCGA | -0.0779 E-score
GAAACATC | -0.124 E-score
ACATATCA | 0.168 E-score
CAAAGTCG | -0.0351 E-score
ATAAAGTG | -0.151 E-score
CGTAAATA | 0.254 E-score
GACACCAC | -0.0899 E-score
CCTGCTCG | -0.226 E-score
ACTTTGAT | -0.0076 E-score
AGAGGGGA | -0.215 E-score
TAGATTAA | 0.268 E-score
AGTACAGA | -0.062 E-score
AGAGAGTC | -0.251 E-score
TAACTATA | 0.347 E-score
CTCCGGCA | -0.0967 E-score
ATCCGTCA | -0.0325 E-score
ACCGTTGC | 0.0436 E-score

Sequence | binding signal
GCAGCTCA | -0.0554 E-score
CCTTCACC | -0.118 E-score
CACACACG | -0.0575 E-score
CTAACCAC | -0.163 E-score
CACATTTA | 0.195 E-score
CAGACCTA | 0.0329 E-score
CCTTCTAA | -0.14 E-score
GAACGGAA | -0.204 E-score
ATCAAGCA | 0.00395 E-score
GTCAAGGA | -0.129 E-score
CCGGTGGA | -0.145 E-score
AACTGAGA | -0.1 E-score
GGAGGCGA | -0.221 E-score
GCAAGGCC | -0.283 E-score
GGATATCA | 0.125 E-score
GGGAGACC | -0.227 E-score
ATTTTTGC | -0.0684 E-score
GACTACAA | -0.00391 E-score
AGTTAACA | 0.122 E-score
CGCCTATC | -0.0928 E-score
CGTAGGCA | -0.0837 E-score
AGTTGATC | 0.09 E-score
AGGATGAT | -0.0352 E-score
CCGCGGCG | -0.231 E-score
CAGGTGCC | -0.177 E-score

Sequence | binding signal
AAGCTTTC | -0.103 E-score
AACGGAGT | -0.111 E-score
TATATTCA | 0.264 E-score
AGTTTTAC | 0.292 E-score
AGGGGAGA | -0.228 E-score
AGCTTAGA | -0.069 E-score
CAACGATA | 0.206 E-score
CATGCGTC | 0.00833 E-score
AGATCTTC | 0.0644 E-score
AGTTGCAC | 0.09 E-score
CGTGATTC | -0.0211 E-score
GGAATCCA | -0.132 E-score
AGTCTCGC | -0.0929 E-score
CGTCCCAA | -0.181 E-score
ATGCTCCC | -0.193 E-score
GGTCTACA | 0.0204 E-score
CTCTGACA | -0.113 E-score
CGCTCCCC | -0.266 E-score
GAGGGCAA | -0.328 E-score
ACCTCTAA | -0.0561 E-score
CGACCACG | -0.251 E-score
CAGAGCAC | -0.219 E-score
GCCCCATA | 0.111 E-score
TACGCAAA | 0.196 E-score
CGCTCGTC | -0.243 E-score

Sequence | binding signal
AACCGGAG | -0.22 E-score
ACGATAAT | 0.15 E-score
ATTCGATA | 0.205 E-score
AGTAAATC | 0.215 E-score
ACAGACAC | -0.0243 E-score
ATCACAGA | -0.0434 E-score
ACTACGTA | 0.277 E-score
TCGGGCCA | -0.12 E-score
ATCTTGCC | -0.00252 E-score
CACAAGAG | -0.00599 E-score
GTTGATAA | 0.0851 E-score
ATTTATTA | 0.306 E-score
CGAGCGCC | -0.388 E-score
CATGAGAA | 0.219 E-score
CCTGTTAA | -0.159 E-score
CCCAGAAG | -0.158 E-score
CCCCTAAG | -0.26 E-score
GCGATCAC | 0.00148 E-score
GGTGAAAC | -0.0397 E-score
AGTAAAAT | 0.329 E-score
ATGACTAA | 0.151 E-score
GAATGCCC | -0.13 E-score
ACCCCAGA | -0.19 E-score
TCGATCCA | -0.0554 E-score
ACCTTCAG | -0.101 E-score

Sequence | binding signal
CAACCTGA | -0.0116 E-score
TCCACGGA | -0.157 E-score
GTACACTA | 0.196 E-score
ATTAACGA | 0.166 E-score
TCCCCACA | -0.206 E-score
CAGTAATG | -0.0082 E-score
ATGTATCA | 0.301 E-score
GTCTCTAA | -0.0333 E-score
CTCGCTCC | -0.141 E-score
ATCCCGAT | 0.0988 E-score
TGGCATAA | 0.0295 E-score
CTCTCTGA | -0.168 E-score
ACCGGGCG | -0.311 E-score
ACTTTATG | 0.0912 E-score
AATTCCGG | -0.0116 E-score
CATTATAG | 0.147 E-score
CGCGGAGC | -0.178 E-score
CCAATCCG | -0.045 E-score
AGGCATGC | -0.15 E-score
CATTCTCG | -0.101 E-score
AGAGTCCC | -0.226 E-score
CATAAGAG | -0.00754 E-score
AAGGCTCT | -0.246 E-score
ATTACTTG | 0.121 E-score
AGTGAATG | -0.088 E-score

Sequence | binding signal
GTTCAAGA | -0.149 E-score
GTCCAGAC | -0.154 E-score
ATCTCATC | 0.161 E-score
CCTAACTA | 0.225 E-score
AATGAAAG | -0.0213 E-score
CTCCGGCC | -0.148 E-score
ATACGGCA | 0.169 E-score
ACGCAGAT | -0.0111 E-score
CTCTTACC | -0.0309 E-score
GACCCGGA | -0.052 E-score
ACTACGCT | 0.162 E-score
ATACTAAA | 0.39 E-score
AGTTCCTG | 0.0183 E-score
ATATATGC | 0.256 E-score
CGGTAGGA | 0.277 E-score
GAATACAC | 0.109 E-score
GGGCCTAA | -0.138 E-score
CCAGAGTC | -0.212 E-score
CTTGCAAC | -0.0134 E-score
TAATAACA | 0.191 E-score
ATTTTGGG | 0.0112 E-score
GCTGGGCA | -0.293 E-score
